Out of some 45,000 compounds screened, about 200 (0.44%) were called active. About 7% were inconclusive and are not listed. Calls come from the whole dose curve; as a rule, active = well fitted activation curve with a large enough effect; inconclusive = small, poorly fitted or top-dose-only effect; inactive = no such curve, though single readings can be large or run the other way. The list shows a part of the results.
Experiment: qHTS of TDP-43 Inhibitors: NCGC Sytravon Library Screen; note: nearly all actives have a fitted effect of over 55% in size; for growth rescue (activation): 0% is about no effect
Details: yeast TDP-43 toxicity rescue, BacTiter-Glo growth, 24 h; series mostly up to 46.1 µM; growth rescue (activation): at the top concentration
In short: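 TDP-43-expressing yeast, pregrown in raffinose, seeded at OD600 0.02 in galactose medium with compound for 24 hr at 30 deg C. Growth read by BacTiter-Glo luminescence, so rescue of toxicity appears as activation.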
Potency is the fitted concentration of half-maximal effect.

Structure (SMILES) | growth rescue (activation) | Potency
OC[C@@H]1CN(CCN2CCOCC2)C[C@H](n2cnc3c(NC4CCC4)ncnc32)O1 | inactive: 14.1% | –
Cc1cc(NC(=O)c2ccc3c(c2)OCO3)ccc1NC(=O)c1ccccc1 | inactive: 8.75% | –
O=C(O)c1ccccc1SSc1ccccc1C(=O)O | inactive: -2.9% | –
Cc1ccc(/C=N/NC(=O)c2nc3nc(C)cc(C)n3n2)cc1 | inactive: -30.9% | –
CC(C)c1ccc(OCc2ccc(C(=O)N(C)C)o2)cc1 | inactive: 24.5% | –
Cn1c(=O)c2ccccc2n(CC(=O)NCCC2=CCCCC2)c1=O | inactive: -8.28% | –
COc1ccccc1NC(=O)COC(=O)C1CC2CCCC(C1)C2=O (centres undefined) | inactive: 14.1% | –
Cc1cc(NC(=O)C2CC(=O)N(c3ccccc3Cl)C2)no1 (centres undefined) | inactive: 2.88% | –
CCOc1cc(Br)cc(/C=N/NC(=O)c2cccnc2)c1O | inactive: -8.84% | –
CCOc1ccccc1NC(=O)C(C)CC (centres undefined) | inactive: 17.7% | –
O=C(CCCOc1ccc(Cl)cc1)Nc1cccc(C(=O)O)c1 | inactive: -1.93% | –
COc1cc2[nH]c(Cl)c([N+](=O)[O-])c2cc1OC | inactive: 20.6% | –
CC(=O)c1ccc(NC(=O)Cn2c(=O)oc3ccccc32)cc1 | inactive: 8.37% | –
CCN(CC)S(=O)(=O)c1ccc(C)c(C(=O)Oc2cccc(-c3cnc4ccccc4n3)c2)c1 | inactive: 7.86% | –
Cc1nc2nc(C)c(NS(=O)(=O)c3ccc(C(C)(C)C)cc3)c(=O)n2[nH]1 | inactive: 2.14% | –
COc1cc(C=O)ccc1Oc1nnnn1-c1ccccc1 | inactive: 5.88% | –
C/C(CC(=O)Nc1ccc2c(c1)OCO2)=N\NC(=O)c1ccc(N)cc1 | inactive: 9.5% | –
CC(NC(=O)C1CCC(C(C)(C)C)CC1)C(c1ccccc1)N1CCOCC1 (centres undefined) | inactive: 19.5% | –
Cc1cccc(-c2noc(CCC(=O)NCCc3ccccc3)n2)c1 | inactive: 23.6% | –
Cc1onc(C(=O)Nc2c(C)n(C)n(-c3ccccc3)c2=O)c1[N+](=O)[O-] | inactive: -7.4% | –
Cc1ccc(NC(=O)c2ccc(=O)[nH]n2)cc1C | inactive: 8.75% | –
CC(C)C1CC(CCN2CCCCC2)(c2ccccc2)CCO1 (centres undefined) | inactive: -8.23% | –
COc1ccccc1CNC(=O)C1CCC(=O)N1C(C)C (centres undefined) | inactive: 5.36% | –
Cn1c(=O)c2c(ncn2CC(=O)Nc2nccs2)n(C)c1=O | inactive: -7.06% | –
Cc1ccccc1N(CC(=O)NC(C)(C)C)C(=O)CS(=O)CC(=O)Nc1ccc2c(c1)OCO2 (centres undefined) | inactive: -14.2% | –
COC(=O)C1(NC(=O)NC23CC4CC(CC(C4)C2)C3)CCCCC1 | inactive: -0.0316% | –
CS(=O)(=O)c1ccc(NCCc2ccc(S(N)(=O)=O)cc2)c([N+](=O)[O-])c1 | inactive: 8.34% | –

Structure (SMILES) | growth rescue (activation) | Potency
COc1cc(/C=C/c2cc(C(=O)O)c3ccccc3n2)cc(OC)c1O | inactive: 0.61% | –
CCCOc1ccc(NC(=O)C(=O)NCCCn2ccnc2)cc1 | inactive: -5.42% | –
CCN(CCNC(=O)C1CCN(S(=O)(=O)c2c(C)noc2C)CC1)c1ccccc1 | inactive: -10.6% | –
C(=N\Nc1nc2ccccc2[nH]1)/c1ccncc1 | inactive: -4.05% | –
COC(=O)CC(N)c1ccc(Br)cc1 (centres undefined) | inactive: -4.39% | –
Cc1cccc(NC(=O)c2ccc(NCCO)c([N+](=O)[O-])c2)n1 | inactive: 3.22% | –
CN(C)c1ccc(C2C=C(c3ccc(Cl)cc3OC(F)F)Nc3ncnn32)cc1 (centres undefined) | inactive: 21.9% | –
CCCCCCC(=O)NNC(=O)c1c(O)c2ccccc2n(CC)c1=O | inactive: -45.6% | –
Cc1ccnc(NC(NC(=O)C(C)C)(C(F)(F)F)C(F)(F)F)c1 | inactive: -6.85% | –
CC1CCN(S(=O)(=O)N2CCCC(C(=O)NCc3ccc(F)cc3)C2)CC1 (centres undefined) | inactive: -4.93% | –
CC(=O)OCCCNc1cc(Sc2ccc(Cl)cc2)c2nonc2c1[N+](=O)[O-] | inactive: -22.9% | –
O=C(c1ccc(C(F)(F)F)cc1)C1CCCN(C(=O)c2cnccn2)C1 (centres undefined) | inactive: 6.24% | –
COC(=O)c1cc(C(=O)NCCN2C(=O)S/C(=C\c3cccs3)C2=O)cc([N+](=O)[O-])c1 | inactive: 3.54% | –
Cc1ccc(CN2CCC(n3nccc3NC(=O)c3ccc4c(c3)OCO4)CC2)o1 | inactive: -6.64% | –
CCN(C(=O)Cc1c(C(=O)O)[nH]c2ccccc12)c1ccc(OC)cc1 | inactive: 3.18% | –
Fc1ccccc1NC(=S)N1CCN(Cc2ccc3c(c2)OCO3)CC1 | inactive: -8.27% | –
CC(C)c1ccc(OCCCCN2CCCCC2)cc1 | inactive: -38.1% | –
COc1cc(CNC(=O)Nc2nc(C(N)Cc3ccc(Cl)cc3)cs2)cc(OC)c1OC (centres undefined) | inactive: 8.15% | –
Cc1nc2ccc(-c3nc4ccccc4[nH]3)cc2[nH]1 | inactive: -0.81% | –
Clc1ccccc1-c1nnc(-c2ccc3c(c2)OCO3)o1 | inactive: 7.34% | –
CCCC(C(=O)NC(C)(C)CC)N(Cc1ccco1)C(=O)CNS(=O)(=O)c1ccccc1 (centres undefined) | inactive: -3.73% | –
COc1ccc(NC(=O)c2ccc3c(c2)C(=O)N(CC2CCCO2)C3=O)cc1 (centres undefined) | inactive: 11.4% | –
Clc1ccc2nc(-c3ccccc3)nc(C(Cl)Cl)c2c1 | inactive: 1.67% | –
COc1ccc(-c2csc(NCc3ccco3)n2)cc1C | – | active: 17.8 µM
NC(=O)c1ccc(C(=O)c2ccc([N+](=O)[O-])cc2)cc1 | inactive: 17.2% | –
CCN(CC)C(=O)/C(=C/c1cccc([N+](=O)[O-])c1)NC(=O)c1ccco1 | inactive: 5.28% | –
Cc1cc(C(=O)Cn2nc(C(=O)O)c3ccccc3c2=O)c(C)n1-c1ccc(F)cc1 | inactive: 4.07% | –

Source: PubChem BioAssay AID1347073 (National Center for Advancing Translational Sciences (NCATS), 2019)
